Measurements from the supplement of paper PMC10037445.
The full ranking holds about 2,900 compounds; the median of “NF-kB SEAP reporter activity, fold change vs agonist alone” is about 0.99, and the highest 2% start at about 2.6. The list shows a part of the results.

Legend:
RAW-Dual [1] = assay: NF-kB SEAP reporter activity, fold change vs agonist alone; higher = enhanced NF-kB activity; settings: library stock concentration (final ~1000-fold dilution): 10 mM
Summary of the method: (§1)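 RAW-Dual macrophages were seeded in DMEM at 50,000 cells/well in 384-well plates, given 50 nL of library stock by pin tool, and given a PRR agonist 1 h later. Plates were held at 37 °C, 5% CO2 for 20 hours, after which supernatant was read for IRF by QuantiLuc luminescence and for NF-κB by QuantiBlue absorbance at 620 nm. Reporter activity is expressed as fold change over wells that received agonist alone. A well was called cytotoxic when IncuCyte confluency fell below 70% of agonist controls in both mask sets.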

RAW-Dual [2] = assay: NF-kB SEAP reporter activity, fold change vs agonist alone; cytotoxicity flag (confluency mask): cytotoxic (confluency <70% of control); higher = enhanced NF-kB activity
Summary of the method: as §1

RAW-Dual [3] = assay: NF-kB SEAP reporter activity, fold change vs agonist alone; cytotoxicity flag (confluency mask): not cytotoxic; higher = enhanced NF-kB activity
Summary of the method: as §1

[4] = cytotoxicity flag (confluency mask): cytotoxic (confluency <70% of control), agonist: Imiquimod (TLR7) […]
[5] = cytotoxicity flag (confluency mask): cytotoxic (confluency <70% of control), agonist: MPLA (TLR4) […]
[6] = agonist: ODN 1826 (TLR9) 0.5 ug/mL
[7] = agonist: Pam2CSK4 (TLR2/6) 0.1 ug/mL
[8] = agonist: Pam3CSK4 (TLR2/1) 0.1 ug/mL
[9] = cytotoxicity flag (confluency mask): not cytotoxic, agonist: MPLA (TLR4) […]
[10] = cytotoxicity flag (confluency mask): not cytotoxic, agonist: Imiquimod (TLR7) […]

SMILES: COCCOc1ccc2c(c1)ncn2-c1ccc2cccc(N3CCC(N)CC3)c2n1
- NF-kB SEAP reporter activity (RAW-Dual [1]; [4]): 2.77
- NF-kB SEAP reporter activity (RAW-Dual [1]; [5]): 0.871

SMILES: Cc1nc(C#Cc2ccnc(Cl)c2)c(C)n1-c1ccc(OC(F)(F)F)cc1 (library stock concentration (final ~1000-fold dilution): 10 mM)
- NF-kB SEAP reporter activity (RAW-Dual [2]; agonist: LPS (TLR4) 0.1 ug/mL): 0.243
- NF-kB SEAP reporter activity (RAW-Dual [2]; [6]): 0.203
- NF-kB SEAP reporter activity (RAW-Dual [2]; [7]): 0.111
- NF-kB SEAP reporter activity (RAW-Dual [2]; [8]): 0.149

SMILES: Cc1nc(C#Cc2ccnc(Cl)c2)c(C)n1-c1ccc(OC(F)(F)F)cc1
- NF-kB SEAP reporter activity (RAW-Dual [1]; [4]): 0.385
- NF-kB SEAP reporter activity (RAW-Dual [1]; [5]): 0.305

SMILES: COC(=O)C1=C(C)NC(C)=C(C(=O)OCCN(C)Cc2ccccc2)C1c1cccc([N+](=O)[O-])c1 (stereo not drawn)
- NF-kB SEAP reporter activity (RAW-Dual [1]; [9]): 0.849

SMILES: COC(=O)C1=C(C)NC(C)=C(C(=O)OCCN(C)Cc2ccccc2)C1c1cccc([N+](=O)[O-])c1 (stereo not drawn) (library stock concentration (final ~1000-fold dilution): 10 mM)
- NF-kB SEAP reporter activity (RAW-Dual [3]; agonist: LPS (TLR4) 0.1 ug/mL): 0.852
- NF-kB SEAP reporter activity (RAW-Dual [3]; [6]): 0.441
- NF-kB SEAP reporter activity (RAW-Dual [3]; [7]): 0.602
- NF-kB SEAP reporter activity (RAW-Dual [3]; [8]): 0.474

SMILES: CN(C)c1cccc(-c2c3c(=O)n(-c4ccccc4Cl)[nH]c3cc(=O)n2C)c1 (library stock concentration (final ~1000-fold dilution): 10 mM)
- NF-kB SEAP reporter activity (RAW-Dual [3]; agonist: LPS (TLR4) 0.1 ug/mL): 2.01
- NF-kB SEAP reporter activity (RAW-Dual [3]; [6]): 0.99
- NF-kB SEAP reporter activity (RAW-Dual [3]; [7]): 0.938
- NF-kB SEAP reporter activity (RAW-Dual [3]; [8]): 0.886

SMILES: CN(C)c1cccc(-c2c3c(=O)n(-c4ccccc4Cl)[nH]c3cc(=O)n2C)c1
- NF-kB SEAP reporter activity (RAW-Dual [1]; [10]): 1.01
- NF-kB SEAP reporter activity (RAW-Dual [1]; [9]): 1.07

SMILES: CC(=O)SC1CC2=CC(=O)CCC2(C)C2CCC3(C)C(CCC34CCC(=O)O4)C12 (stereo not drawn)
- NF-kB SEAP reporter activity (RAW-Dual [1]; [10]): 1.02
- NF-kB SEAP reporter activity (RAW-Dual [1]; [9]): 1.06

SMILES: CC(=O)SC1CC2=CC(=O)CCC2(C)C2CCC3(C)C(CCC34CCC(=O)O4)C12 (stereo not drawn) (library stock concentration (final ~1000-fold dilution): 10 mM)
- NF-kB SEAP reporter activity (RAW-Dual [3]; agonist: LPS (TLR4) 0.1 ug/mL): 0.933
- NF-kB SEAP reporter activity (RAW-Dual [3]; [6]): 1.16
- NF-kB SEAP reporter activity (RAW-Dual [3]; [7]): 1.11
- NF-kB SEAP reporter activity (RAW-Dual [3]; [8]): 1.07

SMILES: CN(C)C(=O)COC(=O)Cc1ccc(OC(=O)c2ccc(NC(=N)N)cc2)cc1.CS(=O)(=O)O (library stock concentration (final ~1000-fold dilution): 10 mM)
- NF-kB SEAP reporter activity (RAW-Dual [3]; agonist: LPS (TLR4) 0.1 ug/mL): 0.941
- NF-kB SEAP reporter activity (RAW-Dual [3]; [6]): 1.07
- NF-kB SEAP reporter activity (RAW-Dual [3]; [7]): 1.02
- NF-kB SEAP reporter activity (RAW-Dual [3]; [8]): 0.912

SMILES: CN(C)C(=O)COC(=O)Cc1ccc(OC(=O)c2ccc(NC(=N)N)cc2)cc1.CS(=O)(=O)O
- NF-kB SEAP reporter activity (RAW-Dual [1]; [10]): 1.17
- NF-kB SEAP reporter activity (RAW-Dual [1]; [9]): 1.01

SMILES: Cc1nn(C)c2c1C(c1ccc(C(F)(F)F)cc1)C(C#N)=C(N)O2 (stereo not drawn)
- NF-kB SEAP reporter activity (RAW-Dual [1]; [10]): 0.85
- NF-kB SEAP reporter activity (RAW-Dual [1]; [9]): 1.16

SMILES: Cc1nn(C)c2c1C(c1ccc(C(F)(F)F)cc1)C(C#N)=C(N)O2 (stereo not drawn) (library stock concentration (final ~1000-fold dilution): 10 mM)
- NF-kB SEAP reporter activity (RAW-Dual [3]; agonist: LPS (TLR4) 0.1 ug/mL): 0.946
- NF-kB SEAP reporter activity (RAW-Dual [3]; [6]): 0.699
- NF-kB SEAP reporter activity (RAW-Dual [3]; [7]): 1.02
- NF-kB SEAP reporter activity (RAW-Dual [3]; [8]): 0.568

SMILES: CN1CCCN(C(=O)c2cccc(-c3ccc(/C=C4/C(=O)Nc5ccc(Cl)cc54)o3)c2)CC1.Cl
- NF-kB SEAP reporter activity (RAW-Dual [1]; [4]): 0.317
- NF-kB SEAP reporter activity (RAW-Dual [1]; [5]): 0.349

SMILES: CN1CCCN(C(=O)c2cccc(-c3ccc(/C=C4/C(=O)Nc5ccc(Cl)cc54)o3)c2)CC1.Cl (library stock concentration (final ~1000-fold dilution): 10 mM)
- NF-kB SEAP reporter activity (RAW-Dual [2]; agonist: LPS (TLR4) 0.1 ug/mL): 0.231
- NF-kB SEAP reporter activity (RAW-Dual [2]; [6]): 0.179
- NF-kB SEAP reporter activity (RAW-Dual [2]; [7]): 0.0881
- NF-kB SEAP reporter activity (RAW-Dual [2]; [8]): 0.15

SMILES: CN(C)CCC=C1c2ccccc2C=Cc2ccccc21.Cl (library stock concentration (final ~1000-fold dilution): 10 mM)
- NF-kB SEAP reporter activity (RAW-Dual [2]; agonist: LPS (TLR4) 0.1 ug/mL): 1.08
- NF-kB SEAP reporter activity (RAW-Dual [2]; [6]): 0.95
- NF-kB SEAP reporter activity (RAW-Dual [2]; [7]): 0.822
- NF-kB SEAP reporter activity (RAW-Dual [2]; [8]): 0.732

SMILES: CN(C)CCC=C1c2ccccc2C=Cc2ccccc21.Cl
- NF-kB SEAP reporter activity (RAW-Dual [1]; [4]): 1.86
- NF-kB SEAP reporter activity (RAW-Dual [1]; [5]): 1.18

SMILES: COc1ccc2cc1Oc1ccc(cc1)CC1c3c(cc4c(c3Oc3cc5c(cc3OC)CCN(C)C5C2)OCO4)CCN1C (stereo not drawn) (library stock concentration (final ~1000-fold dilution): 10 mM)
- NF-kB SEAP reporter activity (RAW-Dual [2]; agonist: LPS (TLR4) 0.1 ug/mL): 1.44
- NF-kB SEAP reporter activity (RAW-Dual [2]; [6]): 0.251
- NF-kB SEAP reporter activity (RAW-Dual [2]; [7]): 1.42
- NF-kB SEAP reporter activity (RAW-Dual [2]; [8]): 1.01

SMILES: COc1ccc2cc1Oc1ccc(cc1)CC1c3c(cc4c(c3Oc3cc5c(cc3OC)CCN(C)C5C2)OCO4)CCN1C (stereo not drawn)
- NF-kB SEAP reporter activity (RAW-Dual [1]; [4]): 1.58
- NF-kB SEAP reporter activity (RAW-Dual [1]; [5]): 2.32

SMILES: CC(=O)c1ccc2c(c1)c1cc(C(C)=O)ccc1n2CCNC(C)C.Cl
- NF-kB SEAP reporter activity (RAW-Dual [1]; [4]): 0.156
- NF-kB SEAP reporter activity (RAW-Dual [1]; [5]): 0.26

SMILES: CC(=O)c1ccc2c(c1)c1cc(C(C)=O)ccc1n2CCNC(C)C.Cl (library stock concentration (final ~1000-fold dilution): 10 mM)
- NF-kB SEAP reporter activity (RAW-Dual [2]; agonist: LPS (TLR4) 0.1 ug/mL): 0.329
- NF-kB SEAP reporter activity (RAW-Dual [2]; [6]): 0.209
- NF-kB SEAP reporter activity (RAW-Dual [2]; [7]): 0.0686
- NF-kB SEAP reporter activity (RAW-Dual [2]; [8]): 0.155

SMILES: CCCCCCCCCCCC1=C(O)C(=O)C=C(O)C1=O (library stock concentration (final ~1000-fold dilution): 10 mM)
- NF-kB SEAP reporter activity (RAW-Dual [2]; agonist: LPS (TLR4) 0.1 ug/mL): 0.65
- NF-kB SEAP reporter activity (RAW-Dual [2]; [6]): 0.374
- NF-kB SEAP reporter activity (RAW-Dual [2]; [7]): 0.232
- NF-kB SEAP reporter activity (RAW-Dual [2]; [8]): 0.25

SMILES: CCCCCCCCCCCC1=C(O)C(=O)C=C(O)C1=O
- NF-kB SEAP reporter activity (RAW-Dual [1]; [4]): 1.1
- NF-kB SEAP reporter activity (RAW-Dual [1]; [5]): 0.79

SMILES: CC(NC(=O)c1ncnc(N)c1Cl)c1ncc(C(=O)Nc2cc(C(F)(F)F)c(Cl)cn2)s1 (stereo not drawn) (library stock concentration (final ~1000-fold dilution): 10 mM)
- NF-kB SEAP reporter activity (RAW-Dual [3]; agonist: LPS (TLR4) 0.1 ug/mL): 0.632
- NF-kB SEAP reporter activity (RAW-Dual [3]; [6]): 0.495
- NF-kB SEAP reporter activity (RAW-Dual [3]; [7]): 0.383
- NF-kB SEAP reporter activity (RAW-Dual [3]; [8]): 0.417

SMILES: CC(NC(=O)c1ncnc(N)c1Cl)c1ncc(C(=O)Nc2cc(C(F)(F)F)c(Cl)cn2)s1 (stereo not drawn)
- NF-kB SEAP reporter activity (RAW-Dual [1]; [10]): 0.623
- NF-kB SEAP reporter activity (RAW-Dual [1]; [9]): 0.876

SMILES: CCC1OC(=O)C(C)C(OC2CC(C)(OC)C(O)C(C)O2)C(C)C(OC2OC(C)CC(N(C)C)C2O)C(C)(O)CC(C)C(=O)C(C)C(O)C1(C)O.N#CS (stereo not drawn)
- NF-kB SEAP reporter activity (RAW-Dual [1]; [9]): 1.07

SMILES: CCC1OC(=O)C(C)C(OC2CC(C)(OC)C(O)C(C)O2)C(C)C(OC2OC(C)CC(N(C)C)C2O)C(C)(O)CC(C)C(=O)C(C)C(O)C1(C)O.N#CS (stereo not drawn) (library stock concentration (final ~1000-fold dilution): 10 mM)
- NF-kB SEAP reporter activity (RAW-Dual [3]; agonist: LPS (TLR4) 0.1 ug/mL): 1.06
- NF-kB SEAP reporter activity (RAW-Dual [3]; [6]): 0.88
- NF-kB SEAP reporter activity (RAW-Dual [3]; [7]): 1.07
- NF-kB SEAP reporter activity (RAW-Dual [3]; [8]): 1.08
